Measured values as given in US8754051B2, “Peptide modulators of the δPKC interaction with the d subunit of F1Fo ATP synthase/ATPase and uses thereof” (Georgia Regents Research Institute, Inc., priority 2009, dated 2014).

Test system: F1Fo ATPase
Assay: Oligomycin-sensitive F1Fo ATPase activity in NCMs after 4-β PMA
Procedure: FIG. 2: 4-β PMA attenuates F1Fo ATPase activity. Neonatal cardiac myocytes (NCMs) were treated as in FIG. 1. The oligomycin-sensitive F1Fo ATPase activity was measured spectrophotometrically using sonicated NCM lysates. Results are expressed as mean±S.E. from 4 independent experiments, each conducted in triplicate, using samples from four different myocyte preparations. Asterisks indicate statistically significant differences between 4-α PMA and either 3 or 100 nM 4-β PMA (p<0.001).
To determine if the above δPKC-dF1Fo co-IP correlated with changes in F1Fo activity, mitochondria from NCMs were isolated and the F1Fo complex were solublized. Since the mitochondrial electrochemical/proton gradient is disrupted by these isolation procedures, the enzyme operates in reverse-mode as an ATPase. Therefore, F1Fo ATPase activity in these assays was monitored as an index of F1Fo complex activity. NCMs were exposed to 0, 3, or 100 nM 4-β PMA and assayed for F1Fo ATPase activity. 3 nM 4-β PMA inhibited the basal, oligomycin-sensitive F1Fo ATPase activity by 39.7±3.1%. This inhibition was increased to 72.1±9.4% follow-ing a 20 min, 100 nM 4-β PMA exposure (FIG. 2). Mean±S.E. values are plotted in FIG. 2 from 4 independent experiments, each from a separate NCM preparation. (*) denotes statistically different from 0 nM PMA group.

CCCCCCCCCCCCCC(=O)O[C@@H]1[C@@H](C)[C@@]2(O)[C@@H](C=C(CO)C[C@]3(O)C(=O)C(C)=C[C@@H]23)[C@@H]2C(C)(C)[C@]12OC(C)=O [4-β PMA, 4-β phorbol 12-myristate-13-acetate]
inhibition of basal oligomycin-sensitive F1Fo ATPase activity (3 nM 4-β PMA, 1 hr): 39.7±3.1%
inhibition of basal oligomycin-sensitive F1Fo ATPase activity (100 nM 4-β PMA, 20 min): 72.1±9.4%
